In PubChem BioAssay AID652104 (National Center for Advancing Translational Sciences (NCATS), 2013):
Screen size: about 410,000 compounds; about 7,200 (1.8%) were called active. The inconclusive results got no clear call from the source; some entries with a clear call stand among them for comparison. Calls come from the whole dose curve; as a rule, active = well fitted activation curve with a large enough effect; inconclusive = small, poorly fitted or top-dose-only effect, or another doubt; inactive = no such curve, though single readings can be large or run the other way. Potencies of inconclusive entries are left out as doubtful fits.

Assay: qHTS of TDP-43 Inhibitors; note: nearly all actives have a fitted effect of over 50% in size; for growth rescue (activation): % of control where 0% means no effect
Conditions: TDP-43 expressing yeast growth rescue, BacTiter-Glo, 24 h; growth rescue (activation): at 46.1 µM (top of the series) unless noted
How it was run: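 Growth rescue of TDP-43-toxic yeast measured as ATP luminescence (BacTiter-Glo). Cells grown to mid-log in raffinose, induced in galactose at OD600=0.02, exposed to compound 24 hr at 30 deg C.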
Potency is the fitted concentration of half-maximal effect; tags give direction and shape of the fitted curve.

Q: Which Potency does the source give for O=c1c2oc3ccccc3c2[nH]c(=S)n1-c1ccccc1 here?
A: The Potency was inconclusive [activator, partial curve].

Q: For Cc1cc(C)cc(CC(=O)N2CCC2(C)C(=O)NS(=O)(=O)c2ccc(C(C)(C)C)cc2)c1 (stereo unspecified), which Potency is on record?
A: Its Potency is inconclusive [activator, single point].

Q: Which Potency does the source give for Cc1sc2ncnc(NCc3cccs3)c2c1C here?
A: Its Potency is active: 17.8 µM.

Q: For COc1ccc(NC(=O)c2cccnc2Nc2ccc(OC)cc2)cc1, which Potency is on record?
A: Its Potency is inconclusive [activator, partial curve].

Q: For N#C/C(=N\Nc1cccc(C(F)(F)F)c1)C(=O)c1ccsc1, which Potency is on record?
A: Its Potency is active: 10 µM.

Q: With Cc1cccc(NC(=S)NCc2ccco2)n1 as the compound, how does the Potency read?
A: Its Potency is inconclusive [activator, partial curve].

Q: Which Potency does the source give for COc1ccc(S(=O)(=O)N2CCN(Cc3nc4ccc(C)cc4o3)CC2)cc1 here?
A: The Potency was active: 17.8 µM.

Q: For Cc1ccc(C)c(Nc2nnc(-c3ccc(C)c(S(=O)(=O)NCC4CCCO4)c3)c3ccccc23)c1 (stereo unspecified), which Potency is on record?
A: Its Potency is inconclusive [activator, partial curve].

Q: For N#C/C(=C\c1cc(Cl)cc(Cl)c1O)C(=O)NC1CCCCC1, which “growth rescue (activation)” value is on record?
A: Its value is inactive: -22.3%.

Q: With COc1ccc(-c2cnc(SCC(=O)Nc3cc(C)on3)n2Cc2ccco2)cc1 as the compound, how does the Potency read?
A: The Potency was inconclusive [activator, full curve, poor fit].

Q: For COc1cccc(C(=O)NC(C)c2ccc(-c3ccccc3)cc2)c1OC (stereo unspecified), which Potency is on record?
A: Its Potency is inconclusive [activator, single point].

Q: For COc1ccc(-c2[nH]ncc2-c2ccc3c(c2)OCCO3)c(O)c1, which Potency is on record?
A: The Potency was inconclusive [activator, single point].

Q: With CCC(=O)Nc1cccc(-c2nc3ccc(C)cc3o2)c1 as the compound, how does the Potency read?
A: Its Potency is inconclusive [activator, single point].

Q: For CCCCNC(=O)[C@@H]1CC=C[C@@H]2CCN(C3CC3)C(=O)[C@@H]21, which Potency is on record?
A: Its Potency is inconclusive [activator, partial curve, poor fit].

Q: With Cc1ccc(NC(=O)Cn2nc(-c3ccccc3Cl)ccc2=O)c(Br)c1 as the compound, how does the “growth rescue (activation)” value read?
A: Its value is inactive: -16.3%.

Q: With COc1cccc(N2CCN(C(=O)CCNS(=O)(=O)c3ccc(F)c(F)c3)CC2)c1 as the compound, how does the Potency read?
A: The Potency was inconclusive [activator, partial curve].

Q: Which Potency does the source give for Clc1ccc(-c2nnc(-c3cccnc3)o2)cc1 here?
A: Its Potency is active: 12.6 µM.

Q: For COc1ccc(NC(=O)O/N=C/c2ccc(N(C)C)cc2)cc1, which Potency is on record?
A: Its Potency is inconclusive [activator, single point].

Q: For O=C(Nc1ccccc1F)C1CCCN(S(=O)(=O)c2ccc(-n3cnnn3)cc2)C1 (stereo unspecified), which “growth rescue (activation)” value is on record?
A: The value was inactive: -5.48%.

Q: For COc1cc(Nc2nc(SCc3ccccc3Cl)nc3ccccc23)cc(OC)c1, which Potency is on record?
A: Its Potency is active: 20 µM.

Q: For COC(=O)c1cccc(COC(=O)c2cccnc2SC)c1, which Potency is on record?
A: The Potency was inconclusive [activator, single point].

Q: For CCn1nc(C)c2c(-c3ccccc3)cc(=O)n(C(C)C(=O)NCc3ccccc3OC)c21 (stereo unspecified), which Potency is on record?
A: Its Potency is active: 10 µM.

Q: With CCOc1ccccc1CNC(=O)c1ccccc1NC(=O)C1=CSCCO1 as the compound, how does the Potency read?
A: The Potency was inconclusive [activator, partial curve].

Q: For Cc1cc(-c2ccc(Br)cc2)n[nH]1, which Potency is on record?
A: Its Potency is inconclusive [activator, single point].

Q: With CC1(C(=O)NS(=O)(=O)c2cccc(F)c2)CCN1C(=O)Cc1ccc(-c2ccccc2)cc1 (stereo unspecified) as the compound, how does the Potency read?
A: Its Potency is inconclusive [activator, single point].

Q: For COc1cc(C2(c3ccc(O)c(OC)c3)C(=O)Nc3c(Br)cc(Br)cc32)ccc1O, which “growth rescue (activation)” value is on record?
A: Its value is inactive: 0.116%.

Q: With CC(C)Cc1ccc(CN2C(C(C)C)C(=O)N(Cc3cn(CCC4OCCO4)nn3)CCS2(=O)=O)cc1 (stereo unspecified) as the compound, how does the Potency read?
A: Its Potency is active: 11.2 µM.

Q: Which Potency does the source give for CCCc1nn(C)c(C(=O)Nc2cccc(Cl)c2)c1Cl here?
A: Its Potency is inconclusive [activator, partial curve].

Q: Which “growth rescue (activation)” value does the source give for Cc1cc(C)cc(OCc2cc(=O)n3c(-c4ccccc4)csc3n2)c1 here?
A: Its value is inactive: 19.3%.

Q: Which Potency does the source give for c1ccc(Nc2cccc(Nc3ccccc3)n2)cc1 here?
A: The Potency was inconclusive [activator, single point].

Q: Which Potency does the source give for COc1ccc2[nH]cc(CCN=C3SCC(=O)N3C)c2c1 here?
A: Its Potency is inconclusive [activator, partial curve, poor fit].

Q: For O=C(COc1ccccc1Cl)Nc1nc(-c2cccs2)cs1, which Potency is on record?
A: The Potency was inconclusive [activator, single point].

Q: Which “growth rescue (activation)” value does the source give for C/C(=N\Nc1cc(C(F)(F)F)ccc1Cl)c1ccccc1O here?
A: Its value is inactive: 23.6%.

Q: With Cc1ccc(NC(=O)c2oc3ccccc3c2NC(=O)Cc2ccccc2)cc1 as the compound, how does the “growth rescue (activation)” value read?
A: Its value is inactive: 9.06%.

Q: With Cc1ccc(S(=O)(=O)N2CCN(C(=O)N(c3ccccc3)c3ccccc3)CC2)cc1 as the compound, how does the Potency read?
A: The Potency was inconclusive [activator, single point].

Q: Which “growth rescue (activation)” value does the source give for COc1cc2c(cc1NC(=O)COC(=O)C(CCSC)NC(=O)c1ccccc1Cl)oc1ccccc12 (stereo unspecified) here?
A: The value was inactive: -2.66%.

Q: For COCc1cc(C)nc2c1C(=O)NC(c1ccc(C)cc1)N2Cc1ccccc1 (stereo unspecified), which growth rescue (activation) is on record?
A: Its growth rescue (activation) is inactive: 19.6% [at 9.22 µM].

Q: Which Potency does the source give for O=C(C1CCC1)N1CCN(S(=O)(=O)c2cc(F)ccc2F)CC1 here?
A: Its Potency is inconclusive [activator, partial curve].

Q: With O=c1ccc2cc(S(=O)(=O)N3CCN(c4ccccc4)CC3)ccc2o1 as the compound, how does the Potency read?
A: Its Potency is inconclusive [activator, partial curve].

Q: Which Potency does the source give for Cc1cccc(-c2noc(CCC(=O)NC3CCCCC3)n2)c1 here?
A: The Potency was inconclusive [activator, partial curve].

Q: For CSc1cc(/C=N/O)c(SC)s1, which “growth rescue (activation)” value is on record?
A: Its value is inactive: 17.9%.

Q: Which Potency does the source give for COc1ccccc1-c1nnc(C2CCN(C(=O)c3cccc(C)c3)CC2)o1 here?
A: Its Potency is inconclusive [activator, partial curve, poor fit].

Q: For CC(C)(C)C(c1nc2ccccc2[nH]1)n1c(-c2cccc(S(C)(=O)=O)c2)nc2ccccc21 (stereo unspecified), which “growth rescue (activation)” value is on record?
A: The value was inactive: 8.21%.

Q: For N/C(=N\OC(=O)CC1CCCCC1)c1ccncc1, which “growth rescue (activation)” value is on record?
A: The value was inactive: 14%.

Q: With Cc1csc2nc3ccccc3c(=O)n12 as the compound, how does the “growth rescue (activation)” value read?
A: Its value is inactive: 0%.

Q: Which growth rescue (activation) does the source give for COc1ccc(-c2nnc(SCC(=O)Oc3ccc(C)cc3)o2)cc1 here?
A: The growth rescue (activation) was inconclusive: -78.6% [activator].

Q: Which Potency does the source give for COc1ccc(Cl)cc1C(=O)NCc1ccco1 here?
A: The Potency was inconclusive [activator, partial curve].

Q: Which Potency does the source give for N#Cc1ccc(OCC(=O)N2CCc3ccccc32)cc1 here?
A: Its Potency is inconclusive [activator, full curve, poor fit].

Q: Which Potency does the source give for COc1ccc(-c2sc(Nc3ccccc3)n[n+]2-c2ccc(F)cc2)c(OC)c1OC here?
A: Its Potency is inconclusive [activator, single point].

Q: Which Potency does the source give for O=[N+]([O-])c1ccc(SNc2ccccc2)c([N+](=O)[O-])c1 here?
A: The Potency was inconclusive [activator, partial curve, poor fit].

Q: With CCN(C1CCCCC1)S(=O)(=O)CCNC(=O)c1ccc(OC)cc1 as the compound, how does the Potency read?
A: Its Potency is inconclusive [activator, partial curve, poor fit].

Q: Which Potency does the source give for CC(=O)c1c(C)n([O-])c2ccccc2[n+]1=O here?
A: Its Potency is inconclusive [activator, single point].

Q: Which Potency does the source give for Cc1cc(C)cc(OCc2nc(-c3cccnc3)no2)c1 here?
A: Its Potency is inconclusive [activator, partial curve].

Q: For Cc1cccc(NC(=O)CN2C(=O)C(c3ccccc3)=NC23CCC(C)CC3)c1 (stereo unspecified), which “growth rescue (activation)” value is on record?
A: Its value is inactive: 15.7%.

Q: With CCCCOc1ccc(NC(=O)CSCC(=O)OCC)cc1 as the compound, how does the Potency read?
A: The Potency was active: 12.6 µM.

Q: Which Potency does the source give for CNCCc1ccccn1 here?
A: Its Potency is inconclusive [activator, partial curve].

Q: For COc1cc(OC)cc(C(=O)Nc2cc3c(cc2N2CCOCC2)n(C)c(=O)n3C)c1, which “growth rescue (activation)” value is on record?
A: Its value is inactive: 6.06%.

Q: Which Potency does the source give for Clc1cccc(Cc2c(-c3cccc(Cl)c3)nc3ccc(Br)cn23)c1 here?
A: Its Potency is active: 35.5 µM.

Q: Which Potency does the source give for CCN(CC)c1ccc(NC(=O)CN2CCN(c3ccccc3F)CC2)cc1 here?
A: The Potency was inconclusive [activator, full curve, poor fit].

Q: Which Potency does the source give for Cc1[nH]c2ccc(Br)cc2c1CCNC(=O)c1cc2ccccc2oc1=O here?
A: Its Potency is inconclusive [activator, partial curve].

Q: Which Potency does the source give for CC(=O)NN1C(=O)c2ccc3c4c(ccc(c24)C1=O)C(=O)N(NC(C)=O)C3=O here?
A: Its Potency is inconclusive [activator, partial curve, poor fit].

Q: For COc1ccccc1NC(=O)CCN1C(=O)c2ccccc2C1=O, which Potency is on record?
A: Its Potency is inconclusive [activator, single point].

Q: Which Potency does the source give for O=C(NCc1ccccc1)c1cccc(COc2ccccc2Cl)c1 here?
A: The Potency was inconclusive [activator, partial curve].

Q: Which “growth rescue (activation)” value does the source give for CCn1cc2nc(SCC(=O)Nc3ccc(C)cc3)n(Cc3ccc(C)cc3)c(=O)c2n1 here?
A: The value was inactive: 8.22%.

Q: Which Potency does the source give for Cc1ccc(S(=O)(=O)N2CCN(C(=O)CCOc3ccccc3C)CC2)cc1C here?
A: Its Potency is inconclusive [activator, single point].

Q: With c1ccc(-c2nnc(-c3ccccn3)nn2)nc1 as the compound, how does the Potency read?
A: Its Potency is inconclusive [activator, single point].

Q: Which “growth rescue (activation)” value does the source give for O=C(Nc1nnc(C2=COCCO2)o1)c1cccc([N+](=O)[O-])c1 here?
A: The value was inactive: 9.15%.

Q: Which Potency does the source give for COC(=O)c1cc(Br)ccc1OC(=O)c1cccnc1 here?
A: The Potency was inconclusive [activator, single point].

Q: With O=C(/C=C/c1ccccc1Cl)N1CCN(c2ncccn2)CC1 as the compound, how does the Potency read?
A: Its Potency is inconclusive [activator, partial curve].

Q: For CCOc1ccc(-c2nc(-c3cccnc3)no2)cc1OCC, which Potency is on record?
A: Its Potency is inconclusive [activator, partial curve].

Q: Which Potency does the source give for Cc1ccc(C)c(-c2csc(NC(=O)C3=COCCO3)n2)c1 here?
A: Its Potency is inconclusive [activator, single point].
